Test results taken from paper PMC4336329 (PLoS ONE, 2015).
Screen size: about 310,000 compounds; about 2,200 (0.71%) showed an effect of 50% or more. Effects have a minus sign here. The list shows a part of the results.

target: human ether-à-go-go-related gene (hERG) potassium channel (human, UniProt Q12809); experiment: primary screen, population patch clamp on CHO cells stably expressing hERG
Sequence (Q12809 whole entry, looked up): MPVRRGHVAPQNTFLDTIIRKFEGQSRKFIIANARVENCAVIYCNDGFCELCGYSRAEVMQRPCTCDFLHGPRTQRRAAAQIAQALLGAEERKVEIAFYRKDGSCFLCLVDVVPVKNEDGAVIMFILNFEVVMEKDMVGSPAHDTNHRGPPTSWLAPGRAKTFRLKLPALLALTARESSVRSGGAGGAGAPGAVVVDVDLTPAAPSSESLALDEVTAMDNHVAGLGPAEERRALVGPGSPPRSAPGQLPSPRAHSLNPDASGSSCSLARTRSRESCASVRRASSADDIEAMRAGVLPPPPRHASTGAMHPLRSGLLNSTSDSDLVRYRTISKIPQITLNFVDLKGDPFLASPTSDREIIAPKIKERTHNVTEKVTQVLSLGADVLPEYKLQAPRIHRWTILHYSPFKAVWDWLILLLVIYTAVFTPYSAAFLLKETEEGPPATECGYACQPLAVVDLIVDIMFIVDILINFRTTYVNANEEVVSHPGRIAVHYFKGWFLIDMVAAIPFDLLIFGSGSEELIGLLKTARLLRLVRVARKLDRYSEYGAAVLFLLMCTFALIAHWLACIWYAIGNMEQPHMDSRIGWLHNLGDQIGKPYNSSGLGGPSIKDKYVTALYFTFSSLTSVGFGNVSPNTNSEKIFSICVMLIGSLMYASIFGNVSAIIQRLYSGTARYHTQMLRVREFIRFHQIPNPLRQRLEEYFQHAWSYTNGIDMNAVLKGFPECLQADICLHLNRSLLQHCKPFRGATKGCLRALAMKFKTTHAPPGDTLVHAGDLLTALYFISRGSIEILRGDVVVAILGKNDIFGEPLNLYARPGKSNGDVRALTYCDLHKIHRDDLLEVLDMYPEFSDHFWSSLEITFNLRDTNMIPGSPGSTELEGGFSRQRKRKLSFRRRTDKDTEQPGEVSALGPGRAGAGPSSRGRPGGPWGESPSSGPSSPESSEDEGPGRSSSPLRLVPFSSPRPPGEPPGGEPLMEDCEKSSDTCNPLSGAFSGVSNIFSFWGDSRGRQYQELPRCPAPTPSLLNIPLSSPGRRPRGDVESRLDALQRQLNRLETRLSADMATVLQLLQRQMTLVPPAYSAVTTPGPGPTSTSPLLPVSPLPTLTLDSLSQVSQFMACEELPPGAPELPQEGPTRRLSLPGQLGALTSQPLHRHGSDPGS

Row | SMILES | hERG current change (%, negative = inhibition) at 1uM [%]
1 | O=C(CCN1CCCCO1)N1CCCC(N2CCN(c3ccc(F)cc3)CC2)C1 (stereo not drawn) | 21.9
2 | NC(N)=NC1=NC(=O)C(Cc2ccccc2)S1 (stereo not drawn) | 6.52
3 | CCc1nc2oc3cc(OC)ccc3c(=O)c2c(=O)n1-c1ccccc1 | 6.71
4 | O=C(Nc1ccc(S(=O)(=O)N2CCOCC2)cc1)c1cc(-c2ccccc2O)n[nH]1 | 8.79
5 | CCn1nc(C(=O)Nc2cc(Cl)ccc2-n2cncn2)c2ccccc2c1=O | 2.9
6 | CC1(C)Cc2nc(N3CCOCC3)c(C#N)cc2CO1 | 12
7 | CCOc1ccc(Oc2ccccc2NS(=O)(=O)c2ccc(CCC(=O)O)cc2)cc1 | 14.9
8 | O=C1C(=O)N(CCN2CCOCC2)C(c2ccncc2)/C1=C(/O)c1ccc2c(c1)OCO2 (stereo not drawn) | 9.98
9 | O=C(COc1ccccc1)Nc1c(C(=O)N2CCC(N3CCCCC3)CC2)oc2ccccc12 | -9.1
10 | CN(CCC1CCCCO1)C(=O)CCc1nnc(CCCCc2ccccc2)o1 (stereo not drawn) | 4.71
11 | O=C(Nc1cccc(O)c1)c1ccc(Br)cc1 | -0.53
12 | O=C(Cn1ccn(-c2ccc(F)c(F)c2)c(=O)c1=O)NCCc1ccccc1 | 9.08
13 | O=C(CSc1nc2c(sc3ccccc32)c(=O)n1Cc1ccco1)NCC1CCCO1 (stereo not drawn) | -0.521
14 | CCN(CC)c1ccc(/C=c2\sc3nnc(-c4ccccc4Cl)n3c2=O)cc1 | 4.69
15 | Clc1cccc(NCc2cn3cccnc3n2)c1 | 11.8
16 | CCOC(=O)c1cnc(SCC(=O)OCC(=O)N(CC)C2CCS(=O)(=O)C2)nc1N (stereo not drawn) | 2.16
17 | Nc1ccc(-c2nc3ccccc3s2)cn1 | 14.7
18 | O=C(c1cccc(C(F)(F)F)c1)C1CCCN(Cc2cccn2-c2ncccn2)C1 (stereo not drawn) | -105
19 | Cc1cccc(NC(=O)CCN2CCCC(C)C2)c1.Cl (stereo not drawn) | 10.4
20 | NC1=C([N+](=O)[O-])C(c2ccccc2)C2=C(CCCC2=O)O1 (stereo not drawn) | 24.8
21 | COc1nc(NC(C)C)nc(N(C#N)CN2C(=O)c3ccccc3S2(=O)=O)n1 | 0.394
22 | O=C1CC(c2ccc(S(=O)(=O)NCc3ccncc3)cc2)CN1 (stereo not drawn) | -3.29

Row | SMILES | hERG current change (%, negative = inhibition) at 1uM [%]
23 | CCN(CC)CCn1c(=S)[nH]c2cc(C(=O)N3CC=C(c4ccccc4)CC3)ccc2c1=O | 4.14
24 | CCn1c(SC(C)C(=O)O)nnc1-c1cccnc1 (stereo not drawn) | -0.855
25 | c1ccc2nc3ccccc3nc2c1 | 11
26 | CC1CN(C(=O)CCC(=O)NCc2ccccc2)c2ccccc2O1 (stereo not drawn) | 12.8
27 | CC(=O)Nc1cc(-c2ccccc2)ccc1O | 9.3
28 | CCCN1C(=O)/C(=C\C=C2/Sc3ccccc3N2CCO)SC1=S | 14.5
29 | CCOC(=O)C(C(=O)OCC)C(Nc1ccccc1)c1ccccc1 (stereo not drawn) | 10.1
30 | Cn1c(CC(=O)Nc2ccccc2F)nnc1SCC(=O)NC1CCCC1 | 10.5
31 | COc1cc(C(=O)NCCC(=O)N2CCC3(CC2)NCCc2[nH]cnc23)cc(OC)c1OC | 8.82
32 | CCOc1cccnc1Sc1ccccc1 | 7.37
33 | COc1cc(CN2CCCC(N3CCN(c4ccccc4C)CC3)C2)ccc1O (stereo not drawn) | -7.03
34 | O=C(Cc1nc(=O)c2ccccc2s1)Nc1ccccc1 | 15.8
35 | CC(=O)N(Cc1cccs1)Cc1cc2cc(C)c(C)cc2nc1Cl | -4.09
36 | CCOC(=O)N1CCC(NC(=O)c2cccc3c2C(=O)N(c2ccc(OC)cc2)C3)CC1 | -2.11
37 | CC(C)(C)c1ccc(C(=O)O/N=C(\N)c2ccccc2)cc1 | 15.2
38 | Cc1cc(-c2ccccc2)nc(-c2ccccc2)c1C | 8.77
39 | CCOCCOc1cccc(C(=O)NC(c2ccccc2)c2ccccc2)c1 | 15.6
40 | Cc1[nH]c2ccccc2c1C(=O)C(=O)NCc1ccco1 | 21.5
41 | CCCCN1C(C(=O)Nc2cc(C)on2)=C(O)c2ccccc2S1(=O)=O | 12.7
42 | CCOC(=O)c1c(C)n(CC(O)CN2CCOCC2)c2cc(Br)c(OC)cc12.Cl (stereo not drawn) | 3.63
43 | O=[N+]([O-])c1ccc(N2CCN(S(=O)(=O)c3ccc(Cl)cc3)CC2)cc1NCc1cccnc1 | 8.26
44 | O=C(NC1CCN(C(=O)NCc2ccccc2)CC1)c1ccco1 | 8.74

Row | SMILES | hERG current change (%, negative = inhibition) at 1uM [%]
45 | Cc1ccc2cc(C)c(Sc3nnnn3-c3ccccc3)nc2c1 | -5.69
46 | Cc1cccc(NCc2nc(SCC(N)=O)n[nH]2)c1 | -0.282
47 | CCC(=O)c1ccccc1OCCN1CCN(Cc2ccccc2)CC1.O=C(O)C(=O)O | -21.9
48 | Cc1ccc(-c2noc(CCC(=O)NCC3CCCO3)n2)cc1 (stereo not drawn) | 7.29
49 | O=C1[C@H]2[C@@H](/C=C/c3ccccc3)N3C(=O)CN(CC4CC4)C(=O)[C@@]3(Cc3ccccc3)[C@H]2C(=O)N1c1ccccc1 | 4.59
50 | COCCNC(=O)/C(C#N)=C/c1ccc(C)o1 | -3.17
51 | Cl.Fc1ccc2c(c1)nnn2C1CCN(Cc2nnnn2C2CCCCC2)CC1 | 2.29
52 | COc1ccc(OC)c(NC(=O)N2CCCc3ccccc32)c1 | 4.47
53 | CC(Sc1nccn1C)C(=O)Nc1ccccc1 (stereo not drawn) | -2.42
54 | CC(=O)Nc1ccc(NC(=O)C(C)OC(=O)CCc2nc3ccccc3s2)cc1 (stereo not drawn) | 10.6
55 | O=C(NC1CCS(=O)(=O)C1)c1ccc(S(=O)(=O)N2CCCC2)cc1 (stereo not drawn) | 17.6
56 | Cc1cccc(NC(=O)CSc2nc3ccc(N4C(=O)c5ccccc5C4=O)cc3s2)c1C | 15.1
57 | CC1(C)C2CCC1(CS(=O)(=O)N1CCOCC1)C(=O)C2 (stereo not drawn) | -2.61
58 | COc1cc(SC)ccc1C(=O)N1CCN(c2ccccc2)CC1 | 3.69
59 | Cc1ccc(C)c(Cn2cnc3c(cnn3C(C)(C)C)c2=O)c1 | 15.2
60 | CCOC(=O)C1=C(N)Oc2cc(C)[nH]c(=O)c2C1c1ccncc1 (stereo not drawn) | 2.87
61 | CN(C)CCN(C(=O)c1ccc2c(c1)OCCO2)c1nc2ccc(Cl)cc2s1.Cl | 10.8
62 | OCCN1CCN(C(=S)c2ccc(Cl)cc2)CC1 | 9.29
63 | CCOc1ccc2nc(SCc3cccc(C)c3)nc(C)c2c1 | 6.03
64 | CCCC1C2C(=O)N(c3ccc(OC)cc3)C(=O)C2ON1c1ccccc1 (stereo not drawn) | 12.4
65 | COc1ccc(/C=N/NC(=O)CCn2cnc(-c3ccccc3)c2-c2ccccc2)cc1OC | 7.62
66 | Cc1cc(C)c(OCC(=O)N2CCN(c3ncc(C(F)(F)F)cc3Cl)CC2)c(C)c1 | -0.997

Row | SMILES | hERG current change (%, negative = inhibition) at 1uM [%]
67 | COc1ccc2c(c1)C(C)=CC(C)(C)N2C(=O)Nc1ccccc1 | -3.18
68 | CCCCc1nnc(NC(=O)c2oc3ccccc3c2C)s1 | 9.46
69 | Cc1ccc(-c2nnc3cccc(Cl)n23)cc1 | 3.59
70 | O=c1[nH]c(=S)[nH]c(O)c1N=Nc1ccc(S(=O)(=O)N2CCc3ccccc32)cc1 | 1.2
71 | CCC(C)(C)NC(=O)C(c1ccc(OC)cc1)N(C(=O)CCC(=O)Nc1cc(C)on1)c1ccc2c(c1)OCO2 (stereo not drawn) | 7.04
72 | O=C1Nc2cc3c(cc2Sc2ccccc21)OCCO3 | 1.55
73 | CCOC(=O)CNC(=O)CCNS(=O)(=O)c1ccc2c(c1)c(=O)n(C)c(=O)n2C | 15.7
74 | CCCNC(=O)c1cc(-c2ccco2)on1 | 4.88
75 | CC(OC(=O)c1ccccc1NS(=O)(=O)c1cccc(C(F)(F)F)c1)C(=O)N(C)Cc1ccccc1 (stereo not drawn) | 8.66
76 | COc1ccc2nc(N3CCN(C(=O)C4COc5ccccc5O4)CC3)sc2c1 (stereo not drawn) | -20.9
77 | CCn1nc(C)cc1C(=O)N1CCCC(C(=O)c2ccc3ccccc3c2)C1 (stereo not drawn) | -1.85
78 | CCc1noc(C)c1C(=O)N1CCN(S(=O)(=O)c2cccs2)CC1 | 3.89
79 | Cc1ccc(C)c(OCCC(=O)Nc2ccc3c(c2)OCO3)c1 | -1.16
80 | Cc1nn(-c2cc(N3CCCC3)ccc2[N+](=O)[O-])c(=O)c2ccccc12 | 13.4
81 | CCOC(=O)C1=C(C)N(CCCC(=O)O)C(=O)NC1c1ccc(Cl)cc1Cl (stereo not drawn) | 13.5
82 | O=C(NCc1ccc(F)cc1)C1CC(=O)N(C2CCCCC2)C1 (stereo not drawn) | 16.7
83 | Cn1cccc1Cc1nnc(SCC(=O)NC2CCCCC2)n1CCc1ccccc1 | -5.47
84 | COc1cc(-c2nc(S(=O)(=O)c3ccc(Cl)cc3)c(N(C)C)o2)cc(OC)c1OC | 9.93
85 | Cn1nc(C(=O)N2CCN(S(=O)(=O)c3ccccc3)CC2)c2ccccc2c1=O | -2.03
86 | COc1cc(/C=C2\SC(=O)N(CC(=O)Nc3ccccc3F)C2=O)cc(Cl)c1O | 16.8
87 | Cn1c(SCC(=O)N2CCCCC2)nc2cccnc21 | 15.3
